Results as given in the RNAGym collection of RNA variant scans (doi:10.1093/nar/gkz1192).
Read counts are not given, so values of variants with three or more changes are uncertain.

B1: CPEB3 Ribozyme (parent)
chain: UAACAGGGGGCCACAGCAGAAGCGUUCACGUCGCAGCCCCUGUCAGAUUCUGGUGAAUCUGCGAAUUCUGCUGUAUAUCUC

Variants of: B1
Assay: self-cleavage, relative activity (ratio to wild type); higher = more cleavage; in vitro, sequencing
Method in brief: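 Libraries of CPEB3 self-cleaving ribozyme mutants came from rounds of error-prone PCR and carried barcodes, which DNA sequencing matched to variants. In vitro transcription used T7 RNA polymerase at 37°C for 5 hours, with a further 15 min in DNase I before EDTA stopped the reaction; the ribozymes cleaved during both steps. The RNA was reverse transcribed with template switching and sequenced on Illumina. Relative activity is the cleaved/total read fraction of a variant divided by that of the unmutated ribozyme, averaged over three batches with at least 5 reads.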

Variant | self-cleavage
U43C U54C U74C | 0.6
U43C U54G A57G C59U | 0.17
U43C U58A U74C | 0.17
U43C U58C A64U | 0.39
U43C U58C A77U | 0.19
U43C U58C U60G U72C | 0.15
U43C U60A U69C | 0.31
U43C U60C A64G A77U | 0.12
U43C U60C U72C | 0.09
U43C U66A U67C A75U | 0.15
U43C U69C A75U | 0.13
U43C U74C A75G | 0.9
U43G A47G U72C | 0.07
U43G A56G A57G A64G | 0.27
U43G A57G U58C A75G | 0.11
U43G A64G U72C U74C A75G | 0.19
U43G A64G U72C U76A | 0.15
U43G U48C U51A U58C | 0.11
U43G U60C A75C U76C | 0.17
U43G U60C U67C | 0.2
C44A A45G G55A U74C | 0.18

Variant | self-cleavage
C44A A45G U51C | 0.35
C44A A45U U69A | 0.17
C44U A45U U51C U60C | 0.14
C44U A45U U67G | 0.1
C44U A65G U80C | 0.19
C44U G63A A75G | 0.08
C44U U51C U58C U74C | 0.06
C44U U54A A56U U69C U72C U76C | 0.13
C44U U69C U72A U74C | 0.13
C44U U72A U80C | 0.65
A45C A57G A64G A75G | 0.09
A45C A57G U67C | 0.11
A45C A77G U78C | 0.3
A45C A77U U78C | 0.31
A45C C59U A77G | 0.08
A45C G52A A64U A75G | 0.1
A45C G52U A64U | 0.14
A45C U48A U67C | 0.1
A45C U48A U80C | 0.23
A45C U49C A75G | 0.1
A45C U51C A56U A64U | 0.17

Variant | self-cleavage
A45C U54C U66A | 0.24
A45C U60G U78C | 0.94
A45C U66A U72C | 0.18
A45C U69G U74A U80A | 0.23
A45G A47C U76A | 0.17
A45G A47G A56U U74C | 0.12
A45G A47G A65G U67C | 0.1
A45G A47G G52C U67C | 0.16
A45G A47U U49A U51A U67C | 0.26
A45G A47U U69A | 0.12
A45G A56C C68A | 0.12
A45G A56G A57G A64G U76A | 0.2
A45G A56G A75U | 0.83
A45G A56G G63A U76A | 0.56
A45G A56G U66G | 0.38
A45G A56G U76C C81A | 0.84
A45G A57G U58G | 0.42
A45G A64G A65G U69G | 0.32
A45G A64U A65G U67C | 0.16
A45G A64U U66A | 0.16
A45G A64U U67C | 0.25

Variant | self-cleavage
A45G C59A U72C | 0.26
A45G G52U U78C | 0.98
A45G G53A U58A | 0.41
A45G G61C A64U U72A | 0.18
A45G U48C A57G | 0.66
A45G U48C A65G U72C | 0.13
A45G U48C U49C A56G A57G | 0.32
A45G U48C U60C | 0.57
A45G U49A A56U U60A | 0.71
A45G U49C A64G | 0.22
A45G U49C U66C U74C | 0.11
A45G U49C U78C | 0.19
A45G U51A C62U | 0.61
A45G U51C U54C A65G U69A A75G | 0.22
A45G U51C U60C A65G U67C | 0.07
A45G U51C U72A | 0.44
A45G U58A U69C | 0.36
A45G U58C U69C U80C | 0.19
A45G U58C U80C | 0.21
A45G U58G C62U | 0.26
